The labels stand for the following.
B1: PhoQ; a variant is named by its letters at X, in order, P23837 (parent)
chain: MKKLLRLFFPLSLRVRFLLATAAVVLVLSLAYGMVALIGYSVSFDKTTFRLLRGESNLFYTLAKWENNKLHVELPENIDKQSPTMTLIYDENGQLLWAQRDVPWLMKMIQPDWLKSNGFHEIEADVNDTSLLLSGDHSIQQQLQEVREDDDDAEMTHSVAVNVYPATSRMPKLTIVVVDTIPVELKSSYMVWSWFIYVLSANLLLVIPLLWVAAWWSLRPIEALAKEVRELEEHNRELLNPATTRELTSLVRNLNRLLKSERERYDKYRTTLTDLTHSLKTPLXXLQXXLRSLRSEKMSVSDAEPVMLEQISRISQQIGYYLHRASMRGGTLLSRELHPVAPLLDNLTSALNKVYQRKGVNISLDISPEISFVGEQNDFVEVMGNVLDNACKYCLEFVEISARQTDEHLYIVVEDDGPGIPLSKREVIFDRGQRVDTLRPGQGVGLAVAREITEQYEGKIVAGESMLGGARMEVIFGRQHSAPKDE

This is one part of the list.

Variants of B1 are the subject of this test. As to the kind of experiment: enrichment ratio after two sorts for PhoP signalling (ratio (wild type AVST 3.29)); higher = more functional. As to conditions: with PhoP (E. coli).
Take VHIM: the enrichment ratio is not above 0.25.
On to LAQR, for which the enrichment ratio was not above 0.25.
In the case of MIWS, the enrichment ratio was not above 0.25.
With RFAW, the enrichment ratio was not above 0.25.
Consider IMAG, for which the enrichment ratio was not above 0.25.
For IYMY, the enrichment ratio is not above 0.25.
Turning to LWNA, the enrichment ratio is not above 0.25.
The value for RRPM was not above 0.25.
Take QNAV: the enrichment ratio was not above 0.25.
Regarding GLAS, the enrichment ratio is not above 0.25.
On to RPPR, for which the enrichment ratio was not above 0.25.
GFVR: the enrichment ratio is not above 0.25.
Take RYWA: the enrichment ratio is not above 0.25.
As for MLAF, the enrichment ratio was found to be 5.84.
For the variant DFRR, the enrichment ratio was not above 0.25.
The value for GWFI was not above 0.25; that for RKES was not above 0.25.
In the case of LHHL, the enrichment ratio is not above 0.25.
Turning to TIRK, the enrichment ratio is not above 0.25.
On to GIMV, for which the enrichment ratio worked out at 2.38.
TISD: the enrichment ratio was not above 0.25.
For DGAW, the enrichment ratio is not above 0.25.
On to TWSK, for which the enrichment ratio is not above 0.25.
As for YGQV, the enrichment ratio was not above 0.25.
On to VDTF, for which the enrichment ratio is not above 0.25.
Regarding FTLR, the enrichment ratio was not above 0.25.
Consider LGGG, for which the enrichment ratio is not above 0.25.
For SWVL, the enrichment ratio was not above 0.25.
On to LYWW, for which the enrichment ratio was not above 0.25.
The value for LFQE was not above 0.25; that for LFID was not above 0.25; that for PFVN was not above 0.25.
Take FKCH: the enrichment ratio was not above 0.25.
For the variant VVDF, the enrichment ratio is not above 0.25.
Turning to IAEL, the enrichment ratio is not above 0.25.
The value for VECD was not above 0.25; that for ISFG was not above 0.25.
On to WVPQ, for which the enrichment ratio is not above 0.25.
Turning to GGPT, the enrichment ratio was not above 0.25.
The value for PCEC was not above 0.25.
For the variant YLSS, the enrichment ratio was found to be 0.34.
The value for WMGR was not above 0.25; that for RTRK was not above 0.25; that for GMKI was not above 0.25.
The value for AAYK was not above 0.25.
The value for ELQE was not above 0.25; that for WYHK was not above 0.25.
Consider CSNV, for which the enrichment ratio was not above 0.25.
Take LNQD: the enrichment ratio is not above 0.25.
The value for NRFN was not above 0.25; that for LRTN was not above 0.25; that for VIHA was not above 0.25.
For the variant AWTP, the enrichment ratio is not above 0.25.
On to EICN, for which the enrichment ratio was not above 0.25.
On to GLPS, for which the enrichment ratio is not above 0.25.
Turning to FHQL, the enrichment ratio is not above 0.25.
Take ERIW: the enrichment ratio is not above 0.25.
DSTN: the enrichment ratio was not above 0.25.
Regarding KHVK, the enrichment ratio was not above 0.25.
In the case of YILQ, the enrichment ratio was determined as 0.9.
The value for MAMV was 10.7.
On to VDNS, for which the enrichment ratio was not above 0.25.
The value for WDVV was not above 0.25; that for QLCR was not above 0.25; that for PQRP was not above 0.25.
On to QILG, for which the enrichment ratio is not above 0.25.
The value for HKIP was not above 0.25; that for VDPG was not above 0.25; that for SEDD was not above 0.25.
Take EHHK: the enrichment ratio is 14.4.
As for NNDA, the enrichment ratio is not above 0.25.
Take DWEM: the enrichment ratio is not above 0.25.
The value for DHFC was not above 0.25; that for HTPP was not above 0.25.
The value for NQHV was not above 0.25.
The value for MFAT was not above 0.25; that for RKYW was not above 0.25; that for ICHN was not above 0.25.
TSIE: the enrichment ratio was not above 0.25.
The value for TVHP was not above 0.25; that for SNLL was 18.5; that for AWLS was 1.08.
With TYIY, the enrichment ratio was not above 0.25.
As for PYMF, the enrichment ratio was not above 0.25.
The value for DTYI was not above 0.25; that for QAYS was not above 0.25; that for IKGP was not above 0.25.
DTGQ: the enrichment ratio is not above 0.25.
On to PQPC, for which the enrichment ratio is not above 0.25.
Take IFKK: the enrichment ratio was not above 0.25.
For AQGY, the enrichment ratio was not above 0.25.
For the variant GNWV, the enrichment ratio was not above 0.25.
Take DSFL: the enrichment ratio was not above 0.25.
Take PSDI: the enrichment ratio is not above 0.25.
As for AIPF, the enrichment ratio is not above 0.25.
Turning to AKNW, the enrichment ratio is not above 0.25.
The value for EAKN was not above 0.25; that for TRPQ was not above 0.25.
Regarding WSHK, the enrichment ratio was not above 0.25.
The value for FMFK was not above 0.25; that for SEDF was not above 0.25; that for MALT was 3.1.
For RMVF, the enrichment ratio is not above 0.25.
ISWH: the enrichment ratio was not above 0.25.
As for ERSD, the enrichment ratio was not above 0.25.
In the case of NKFC, the enrichment ratio is not above 0.25.
The value for VYNM was not above 0.25; that for GRAH was not above 0.25.
As to IFMH, the enrichment ratio is not above 0.25.
As to ECCL, the enrichment ratio is not above 0.25.
For EYGR, the enrichment ratio was not above 0.25.
Turning to YKCG, the enrichment ratio is not above 0.25.
The value for QQIM was not above 0.25; that for SMAF was 6.44; that for RVSM was not above 0.25.
The value for QRWW was not above 0.25; that for YVWH was not above 0.25.
For EFDK, the enrichment ratio is not above 0.25.
Consider PDSD, for which the enrichment ratio was not above 0.25.
In the case of RNMW, the enrichment ratio is not above 0.25.
Regarding AKYR, the enrichment ratio is not above 0.25.
Take PCNM: the enrichment ratio was not above 0.25.
In the case of FYEY, the enrichment ratio was not above 0.25.
VLTH: the enrichment ratio is not above 0.25.
The value for ASFN was not above 0.25; that for VEAF was not above 0.25; that for WKEF was not above 0.25.
As to WEPV, the enrichment ratio was not above 0.25.
Turning to ADFY, the enrichment ratio is not above 0.25.
The value for WDDV was not above 0.25; that for IMFN was not above 0.25; that for RTII was not above 0.25.
On to MQTR, for which the enrichment ratio was not above 0.25.
As to EHMV, the enrichment ratio was not above 0.25.
As to MNKI, the enrichment ratio was not above 0.25.
For FFSY, the enrichment ratio is not above 0.25.
For the variant IQDL, the enrichment ratio was not above 0.25.
As to RLSG, the enrichment ratio was not above 0.25.
The value for FNHC was not above 0.25; that for RGNA was not above 0.25.
The value for REMA was not above 0.25.
The value for DPQG was not above 0.25.
On to LNVS, for which the enrichment ratio is not above 0.25.
Consider AVSG, for which the enrichment ratio came to 16.7.
Regarding VTFK, the enrichment ratio is not above 0.25.
As for CSVG, the enrichment ratio is not above 0.25.
On to TYGP, for which the enrichment ratio is not above 0.25.
Turning to VLES, the enrichment ratio was not above 0.25.
Consider STCA, for which the enrichment ratio came out at 7.48.
The value for GTIW was not above 0.25; that for VWVY was not above 0.25.
The value for AGIA was 0.868.
The value for VMTH was not above 0.25.

Values taken from a collection of fitness landscapes (doi:10.1126/science.1257360).
